Laboratory results from the supplement of paper PMC3334620.
The full ranking holds about 33,000 sequences; the median of “E-score (-0.5 to 0.5)” is about -0.054, and the highest 2% start at about 0.39. The list shows a part of the results.

Each sequence was assayed against Ylr278c (UniProt Q05854) (assay: PBM E-score (8-mer binding enrichment) (E-score (-0.5 to 0.5)); higher = stronger / more preferred TF binding; most listed sequences are background and not binding sites). Settings: protein concentration: 200 nM; construct: GST-DNA-binding domain.
Outline: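 PURExpress in vitro transcription/translation supplied GST-tagged yeast transcription factors, either full-length or DNA-binding domain. Applied at about 100-200 nM to universal all-10-mer Agilent arrays double-stranded by primer extension, the bound protein was detected with fluorescent anti-GST. E-scores, modified Wilcoxon-Mann-Whitney statistics, were given by the Universal PBM Analysis Suite to ungapped eight-base words pooled with their reverse complements after masliner normalisation.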
AGTTGAAG was tested, and the “PBM E-score” value was -0.0893.
With CCGCAGCC the “PBM E-score” value was 0.265.
For CACATAAC, the “PBM E-score” value was -0.214.
In the case of ACACCCTA, the “PBM E-score” value is reported as -0.263.
With AAGCAACC the “PBM E-score” value was -0.0861.
GGTTACTA was tested, and the “PBM E-score” value was -0.0127.
AACACATC was tested, and the “PBM E-score” value was 0.0521.
With ATCCGACG the “PBM E-score” value was 0.367.
With AGAGCGCT the “PBM E-score” value was -0.138.
With GCGACGAA the “PBM E-score” value was -0.0396.
With ACGTAAAA the “PBM E-score” value was -0.139.
For CCTTTAAA, the “PBM E-score” value was -0.18.
For AAGCAATG, the “PBM E-score” value was 0.0606.
In the case of TAAGGCTA, the “PBM E-score” value is reported as -0.251.
In the case of AAGAGATT, the “PBM E-score” value is reported as 0.147.
In the case of CCGCACGC, the “PBM E-score” value is reported as 0.137.
For ACCTTACA, the “PBM E-score” value was -0.138.
In the case of CCCTTGTC, the “PBM E-score” value is reported as -0.128.
With GGAGATAA the “PBM E-score” value was 0.256.
ATAGTGCC was tested, and the “PBM E-score” value was -0.0523.
With AGGATCCC the “PBM E-score” value was 0.113.
In the case of GCTCCTAA, the “PBM E-score” value is reported as -0.108.
With ACACGCAG the “PBM E-score” value was -0.163.
GGGATAAA was tested, and the “PBM E-score” value was 0.134.
In the case of GGTCAAAC, the “PBM E-score” value is reported as -0.0475.
For CCCTCGCA, the “PBM E-score” value was -0.107.
In the case of GCAACTGA, the “PBM E-score” value is reported as -0.127.
With GCTCAGAA the “PBM E-score” value was -0.103.
GTCGGAAC was tested, and the “PBM E-score” value was 0.413.
For ACTTTAAG, the “PBM E-score” value was 0.0426.
With CCTTTTGC the “PBM E-score” value was -0.121.
For ACGCCTGC, the “PBM E-score” value was -0.274.
For GCATCCGC, the “PBM E-score” value was 0.0589.
For AAACAGAA, the “PBM E-score” value was -0.207.
For CCTCACTA, the “PBM E-score” value was -0.103.
For ATCGGCCC, the “PBM E-score” value was 0.229.
TATTAGGA was tested, and the “PBM E-score” value was -0.173.
CGGCGTAA was tested, and the “PBM E-score” value was 0.247.
CTCATACA was tested, and the “PBM E-score” value was -0.0546.
In the case of AATTCCAA, the “PBM E-score” value is reported as -0.00843.
For CTTCCAGA, the “PBM E-score” value was -0.233.
For GCATGTGA, the “PBM E-score” value was -0.13.
With GACATGCA the “PBM E-score” value was -0.0798.
With ATGGGTCG the “PBM E-score” value was 0.21.
With GTCGCATA the “PBM E-score” value was -0.0845.
In the case of CGACAGCA, the “PBM E-score” value is reported as 0.0157.
AGGCCTTC was tested, and the “PBM E-score” value was -0.221.
For CGACCTTC, the “PBM E-score” value was 0.194.
In the case of ACCTGAGT, the “PBM E-score” value is reported as -0.0894.
AGATACAG was tested, and the “PBM E-score” value was -0.0599.
GATCTCGA was tested, and the “PBM E-score” value was 0.0789.
In the case of ACTGGCAG, the “PBM E-score” value is reported as -0.0279.
With ATGAATGG the “PBM E-score” value was 0.115.
In the case of CGCAATTC, the “PBM E-score” value is reported as 0.201.
For ACGCGTAA, the “PBM E-score” value was -0.088.
AGGCTCAA was tested, and the “PBM E-score” value was -0.218.
ACCCGGAT was tested, and the “PBM E-score” value was 0.238.
CGGACCAG was tested, and the “PBM E-score” value was 0.295.
With ACACGGCG the “PBM E-score” value was 0.216.
With CAAAGCGC the “PBM E-score” value was 0.188.
With ATCCCGCC the “PBM E-score” value was 0.297.
With ACCACAGG the “PBM E-score” value was -0.095.
For GGCTATAA, the “PBM E-score” value was -0.0937.
AGATAGAT was tested, and the “PBM E-score” value was -0.279.
With ATCTCACG the “PBM E-score” value was 0.112.
With ATCCTTAG the “PBM E-score” value was -0.193.
With AACCTCAT the “PBM E-score” value was -0.143.
GCAACAGA was tested, and the “PBM E-score” value was 0.0725.
With GTATACGA the “PBM E-score” value was -0.0238.
In the case of AATGAACA, the “PBM E-score” value is reported as -0.117.
CAAAAGGC was tested, and the “PBM E-score” value was -0.115.
TTAAACAA was tested, and the “PBM E-score” value was -0.131.
For CATCCGGG, the “PBM E-score” value was 0.3.
In the case of CATTTTCC, the “PBM E-score” value is reported as 0.198.
With GGCACGCC the “PBM E-score” value was -0.0493.
In the case of ATGTATAC, the “PBM E-score” value is reported as -0.0561.
With CATTGATC the “PBM E-score” value was 0.102.
For GAACTTTA, the “PBM E-score” value was 0.0654.
CGGGCCTA was tested, and the “PBM E-score” value was 0.198.
In the case of GACGAGCC, the “PBM E-score” value is reported as -0.155.
With CGGCCACA the “PBM E-score” value was 0.191.
With GCATGCTA the “PBM E-score” value was -0.16.
ACGACCCA was tested, and the “PBM E-score” value was -0.0581.
For AACCGCAA, the “PBM E-score” value was 0.16.
With GTCTCTAA the “PBM E-score” value was -0.172.
For CCAAAGCC, the “PBM E-score” value was -0.0219.
For ACACAGTC, the “PBM E-score” value was -0.116.
For CCGTCTAG, the “PBM E-score” value was 0.0867.
CTGATGCC was tested, and the “PBM E-score” value was -0.0342.
CTTTCTCC was tested, and the “PBM E-score” value was 0.227.
For CTAATCAC, the “PBM E-score” value was 0.0671.
In the case of ACTACATA, the “PBM E-score” value is reported as -0.19.
In the case of GCCCTAAC, the “PBM E-score” value is reported as 0.00741.
With AAGGACTG the “PBM E-score” value was -0.215.
With GTTCCCGA the “PBM E-score” value was 0.139.
For CTCATGGC, the “PBM E-score” value was -0.0203.
With TAGCTATA the “PBM E-score” value was -0.239.
In the case of CTCACCAA, the “PBM E-score” value is reported as 0.0299.
ACGTGCGA was tested, and the “PBM E-score” value was -0.0587.
With ATGGAATC the “PBM E-score” value was -0.0141.
In the case of CAGCACCC, the “PBM E-score” value is reported as -0.0668.
In the case of GCTGGCAC, the “PBM E-score” value is reported as -0.288.
ATTTGTCC was tested, and the “PBM E-score” value was 0.277.
With ATCAAGAG the “PBM E-score” value was -0.105.
ATTGGACC was tested, and the “PBM E-score” value was 0.0491.
In the case of CCTCAGCC, the “PBM E-score” value is reported as -0.106.
GGTCAACC was tested, and the “PBM E-score” value was -0.0377.
GAGAGCAA was tested, and the “PBM E-score” value was -0.0652.
With AGCTTTAA the “PBM E-score” value was -0.101.
With GAATCGTA the “PBM E-score” value was -0.138.
In the case of AGATTACA, the “PBM E-score” value is reported as -0.0105.
GCTAAACC was tested, and the “PBM E-score” value was 0.0263.
In the case of ACTAAGAC, the “PBM E-score” value is reported as -0.186.
GTTCGCGA was tested, and the “PBM E-score” value was 0.0355.
In the case of GAGCCGCC, the “PBM E-score” value is reported as 0.245.
With CTGTCCCA the “PBM E-score” value was -0.212.
With CTCGTCAA the “PBM E-score” value was -0.234.
In the case of AGTTATAC, the “PBM E-score” value is reported as 0.0158.
In the case of ACCGAGAC, the “PBM E-score” value is reported as -0.0312.
With GCATGTCA the “PBM E-score” value was -0.0539.
CGTCGAAA was tested, and the “PBM E-score” value was 0.0207.
With GCTTCAAC the “PBM E-score” value was -0.137.
In the case of GGCCGAAC, the “PBM E-score” value is reported as 0.199.
In the case of CCCTCCGG, the “PBM E-score” value is reported as 0.388.
For CCAAAGAG, the “PBM E-score” value was -0.199.
In the case of TCGTATAA, the “PBM E-score” value is reported as -0.0438.
For AAATAACC, the “PBM E-score” value was -0.114.
AATTTTGG was tested, and the “PBM E-score” value was -0.00227.
For GAGGTGAA, the “PBM E-score” value was -0.0886.
With CAACCGTG the “PBM E-score” value was -0.257.
CCCACATC was tested, and the “PBM E-score” value was -0.143.
For ACGAGTAC, the “PBM E-score” value was -0.139.
In the case of AGAGGAGG, the “PBM E-score” value is reported as -0.278.
In the case of ATACGCCA, the “PBM E-score” value is reported as -0.0814.
CACGCCCA was tested, and the “PBM E-score” value was -0.101.
With AAGGAATA the “PBM E-score” value was -0.00521.
With CGGCGGGA the “PBM E-score” value was 0.36.
For ACATCTCT, the “PBM E-score” value was -0.0918.
AACATTTG was tested, and the “PBM E-score” value was -0.138.
For CTAGCTTC, the “PBM E-score” value was -0.0742.
For AGTCGTCA, the “PBM E-score” value was -0.279.
GGCAAAAA was tested, and the “PBM E-score” value was 0.186.
In the case of AAAACGCG, the “PBM E-score” value is reported as 0.0654.
With TGGCCAAA the “PBM E-score” value was -0.289.
For ACCACCTC, the “PBM E-score” value was 0.142.
For GGAGGGTA, the “PBM E-score” value was 0.126.
For CCCTACAA, the “PBM E-score” value was -0.141.
CGCCAGTA was tested, and the “PBM E-score” value was -0.125.
For GATCGTAC, the “PBM E-score” value was 0.0607.
In the case of AAGGTCCG, the “PBM E-score” value is reported as 0.426.
In the case of GATTCGCC, the “PBM E-score” value is reported as 0.0728.
CAGTTTCC was tested, and the “PBM E-score” value was 0.181.
In the case of CGGCATCC, the “PBM E-score” value is reported as 0.25.
In the case of AAGCAGGT, the “PBM E-score” value is reported as -0.164.
For ACCGGAGC, the “PBM E-score” value was 0.448.
CGAATACG was tested, and the “PBM E-score” value was 0.0905.
With CAACCTCG the “PBM E-score” value was 0.0293.
CTGTAAAC was tested, and the “PBM E-score” value was -0.287.
With TAGAGGGA the “PBM E-score” value was -0.315.
CGTATACC was tested, and the “PBM E-score” value was -0.142.
With CTTCCCTC the “PBM E-score” value was -0.139.
In the case of ACCTCCCT, the “PBM E-score” value is reported as -0.205.
For ACGCCACA, the “PBM E-score” value was 0.013.
CCAATCTA was tested, and the “PBM E-score” value was -0.00777.
For AATCCCGC, the “PBM E-score” value was 0.344.
AGTAAGTC was tested, and the “PBM E-score” value was -0.0222.
GCCTGACA was tested, and the “PBM E-score” value was -0.0918.
CTATCTAC was tested, and the “PBM E-score” value was -0.0559.
TCTGTGCA was tested, and the “PBM E-score” value was -0.0797.
In the case of TACCAACA, the “PBM E-score” value is reported as -0.28.
For TGGAGAAA, the “PBM E-score” value was -0.0369.
In the case of AGTCATCA, the “PBM E-score” value is reported as -0.188.
